Experimental findings from article PMC3016465 (Proteins, 2011) are described below.

The data set “EPR spectroscopy” deals with the molecule itself. Description: EPR spectroscopy.
The target of data set [1] is oligomeric Aβ(1-40) (AβO). Description: EPR spectroscopy.

In general, Kd refers to the constant that tells how readily two partners part at equilibrium. The low end stands for a tighter complex, the high end for a looser complex.

B1: apoE[…]C, spin labeled at position 264 (natural protein)
chain: not shown
modifications: MTS-SL nitroxide spin label on the Cys at position 264
For the molecule B1, in “EPR spectroscopy”, the binding result is “binds”. The molecule also displayed a Kd in data set [1] of 27 µM.
